Substitutions are numbered along the chain they refer to; changes in the protein carry UniProt numbers. Some of the results follow.
T1: RBFOX1 RRM (Homo sapiens, UniProt Q9NWB1 109-208)
T1 sequence: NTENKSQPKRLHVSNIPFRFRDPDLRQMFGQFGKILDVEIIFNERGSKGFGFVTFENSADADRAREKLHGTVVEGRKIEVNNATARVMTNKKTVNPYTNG

B1: UCCUGUC (DNA:RNA)
RNA: GGGAGACCGGAAUUCAGAUUGUCCUCCUGUCUUAAAUCCCGUCGUAGCCACCA
DNA 1: CAATCTGAATTCCGGTCTCCC
DNA 2: TGGTGGCTACGACGGGATT
B2: UGAGUGA (DNA:RNA)
RNA: B1 RNA with C26G, C27A, U28G, G29U, U30G, C31A
DNA 1: CAATCTGAATTCCGGTCTCCC
DNA 2: TGGTGGCTACGACGGGATT
B3: CACCCGG (DNA:RNA)
RNA: B1 RNA with U25C, C26A, U28C, G29C, U30G, C31G
DNA 1: CAATCTGAATTCCGGTCTCCC
DNA 2: TGGTGGCTACGACGGGATT
B4: UCAAGGU (DNA:RNA)
RNA: B1 RNA with C27A, U28A, U30G, C31U
DNA 1: CAATCTGAATTCCGGTCTCCC
DNA 2: TGGTGGCTACGACGGGATT
B5: ACCCUGG (DNA:RNA)
RNA: B1 RNA with U25A, U28C, G29U, U30G, C31G
DNA 1: CAATCTGAATTCCGGTCTCCC
DNA 2: TGGTGGCTACGACGGGATT
B6: CUAGACA (DNA:RNA)
RNA: GGGAGACCGGAAUUCAGAUUGUCCCUAGACAUUAAAUCCCGUCGUAGCCACCA
DNA 1: CAATCTGAATTCCGGTCTCCC
DNA 2: TGGTGGCTACGACGGGATT
B7: AAUCGCG (DNA:RNA)
RNA: B6 RNA with C25A, U26A, A27U, G28C, A29G, A31G
DNA 1: CAATCTGAATTCCGGTCTCCC
DNA 2: TGGTGGCTACGACGGGATT
B8: ACAUUUA (DNA:RNA)
RNA: B1 RNA with U25A, C27A, G29U, C31A
DNA 1: CAATCTGAATTCCGGTCTCCC
DNA 2: TGGTGGCTACGACGGGATT
B9: CGGAUAC (DNA:RNA)
RNA: B6 RNA with U26G, A27G, G28A, A29U, C30A, A31C
DNA 1: CAATCTGAATTCCGGTCTCCC
DNA 2: TGGTGGCTACGACGGGATT
B10: AUUGGGC (DNA:RNA)
RNA: B6 RNA with C25A, A27U, A29G, C30G, A31C
DNA 1: CAATCTGAATTCCGGTCTCCC
DNA 2: TGGTGGCTACGACGGGATT
B11: UUGGUAU (DNA:RNA)
RNA: B6 RNA with C25U, A27G, A29U, C30A, A31U
DNA 1: CAATCTGAATTCCGGTCTCCC
DNA 2: TGGTGGCTACGACGGGATT
B12: AAGCAGG (DNA:RNA)
RNA: B6 RNA with C25A, U26A, A27G, G28C, C30G, A31G
DNA 1: CAATCTGAATTCCGGTCTCCC
DNA 2: TGGTGGCTACGACGGGATT
B13: CAAGUAG (DNA:RNA)
RNA: B6 RNA with U26A, A29U, C30A, A31G
DNA 1: CAATCTGAATTCCGGTCTCCC
DNA 2: TGGTGGCTACGACGGGATT
B14: CCGUAGC (DNA:RNA)
RNA: B1 RNA with U25C, C27G, G29A, U30G
DNA 1: CAATCTGAATTCCGGTCTCCC
DNA 2: TGGTGGCTACGACGGGATT
B15: GACCGCG (DNA:RNA)
RNA: B1 RNA with U25G, C26A, U28C, U30C, C31G
DNA 1: CAATCTGAATTCCGGTCTCCC
DNA 2: TGGTGGCTACGACGGGATT
B16: UUGUUUC (DNA:RNA)
RNA: B1 RNA with C26U, C27G, G29U
DNA 1: CAATCTGAATTCCGGTCTCCC
DNA 2: TGGTGGCTACGACGGGATT
B17: UACGGAG (DNA:RNA)
RNA: B1 RNA with C26A, U28G, U30A, C31G
DNA 1: CAATCTGAATTCCGGTCTCCC
DNA 2: TGGTGGCTACGACGGGATT
B18: UGGCUGG (DNA:RNA)
RNA: B1 RNA with C26G, C27G, U28C, G29U, U30G, C31G
DNA 1: CAATCTGAATTCCGGTCTCCC
DNA 2: TGGTGGCTACGACGGGATT
B19: GAUGGCA (DNA:RNA)
RNA: B6 RNA with C25G, U26A, A27U, A29G
DNA 1: CAATCTGAATTCCGGTCTCCC
DNA 2: TGGTGGCTACGACGGGATT
B20: AUGGCGA (DNA:RNA)
RNA: B6 RNA with C25A, A27G, A29C, C30G
DNA 1: CAATCTGAATTCCGGTCTCCC
DNA 2: TGGTGGCTACGACGGGATT
B21: GUAAGAU (DNA:RNA)
RNA: B6 RNA with C25G, G28A, A29G, C30A, A31U
DNA 1: CAATCTGAATTCCGGTCTCCC
DNA 2: TGGTGGCTACGACGGGATT
B22: GGAUGCC (DNA:RNA)
RNA: B1 RNA with U25G, C26G, C27A, U30C
DNA 1: CAATCTGAATTCCGGTCTCCC
DNA 2: TGGTGGCTACGACGGGATT
B23: UCGGUGU (DNA:RNA)
RNA: B1 RNA with C27G, U28G, G29U, U30G, C31U
DNA 1: CAATCTGAATTCCGGTCTCCC
DNA 2: TGGTGGCTACGACGGGATT
B24: UGGAUCU (DNA:RNA)
RNA: B6 RNA with C25U, U26G, A27G, G28A, A29U, A31U
DNA 1: CAATCTGAATTCCGGTCTCCC
DNA 2: TGGTGGCTACGACGGGATT
B25: UCCACCA (DNA:RNA)
RNA: B1 RNA with U28A, G29C, U30C, C31A
DNA 1: CAATCTGAATTCCGGTCTCCC
DNA 2: TGGTGGCTACGACGGGATT
B26: UGUACCC (DNA:RNA)
RNA: B1 RNA with C26G, C27U, U28A, G29C, U30C
DNA 1: CAATCTGAATTCCGGTCTCCC
DNA 2: TGGTGGCTACGACGGGATT
B27: UGAGACG (DNA:RNA)
RNA: B6 RNA with C25U, U26G, A31G
DNA 1: CAATCTGAATTCCGGTCTCCC
DNA 2: TGGTGGCTACGACGGGATT
B28: UUCGAUA (DNA:RNA)
RNA: B6 RNA with C25U, A27C, C30U
DNA 1: CAATCTGAATTCCGGTCTCCC
DNA 2: TGGTGGCTACGACGGGATT
B29: UUGUAAG (DNA:RNA)
RNA: B6 RNA with C25U, A27G, G28U, C30A, A31G
DNA 1: CAATCTGAATTCCGGTCTCCC
DNA 2: TGGTGGCTACGACGGGATT
B30: AGUUAAU (DNA:RNA)
RNA: B6 RNA with C25A, U26G, A27U, G28U, C30A, A31U
DNA 1: CAATCTGAATTCCGGTCTCCC
DNA 2: TGGTGGCTACGACGGGATT
B31: ACAUCGA (DNA:RNA)
RNA: B6 RNA with C25A, U26C, G28U, A29C, C30G
DNA 1: CAATCTGAATTCCGGTCTCCC
DNA 2: TGGTGGCTACGACGGGATT

target: T1, RBFOX1 RRM; test: EMSA; HiTS-Eq, 1 nM pool, 10 min; buffer printed only for the single-RNA assays: 10 mM Tris pH 7.5, 150 mM NaCl, 3.4 mM EDTA, 0.001% NP-40, 30 C; settings: tags: His6 N-terminal (pET28a); label: 5' 32P
How it was run: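 Purified RbFox RRM (wild type or mutant) was equilibrated for 10 min in 50 µL with 1 nM of a 5′-radiolabelled pool of RNA with 7 randomized nucleotides, its flanks annealed to DNA oligonucleotides, across increasing protein concentrations. Free RNA was separated by 8% native PAGE, excised, reverse-transcribed, PCR-barcoded and sequenced on an Illumina HiSeq 2500. Relative association constants came from read-count changes of each variant against the control reaction, normalised to the cognate motif.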

Binder | binding signal
B1 | 0.0169 KA relative to UGCAUGU
B2 | 0.0154 KA relative to UGCAUGU
B3 | 0.00343 KA relative to UGCAUGU
B4 | 0.0126 KA relative to UGCAUGU
B5 | 0.00765 KA relative to UGCAUGU
B6 | 0.00428 KA relative to UGCAUGU
B7 | 0.00509 KA relative to UGCAUGU
B8 | 0.000401 KA relative to UGCAUGU
B9 | 0.0143 KA relative to UGCAUGU
B10 | 0.00837 KA relative to UGCAUGU
B11 | 0.0146 KA relative to UGCAUGU
B12 | 0.0101 KA relative to UGCAUGU
B13 | 0.00571 KA relative to UGCAUGU
B14 | 0.00665 KA relative to UGCAUGU
B15 | 0.0112 KA relative to UGCAUGU
B16 | 0.021 KA relative to UGCAUGU

Binder | binding signal
B17 | 0.00489 KA relative to UGCAUGU
B18 | 0.0415 KA relative to UGCAUGU
B19 | 0.0234 KA relative to UGCAUGU
B20 | 0.0144 KA relative to UGCAUGU
B21 | 0.0111 KA relative to UGCAUGU
B22 | 0.0339 KA relative to UGCAUGU
B23 | 0.0232 KA relative to UGCAUGU
B24 | 0.0236 KA relative to UGCAUGU
B25 | 0.00192 KA relative to UGCAUGU
B26 | 0.00639 KA relative to UGCAUGU
B27 | 0.0138 KA relative to UGCAUGU
B28 | 0.0123 KA relative to UGCAUGU
B29 | 0.0175 KA relative to UGCAUGU
B30 | 0.00205 KA relative to UGCAUGU
B31 | 0.00224 KA relative to UGCAUGU

Source: paper PMC9911399, “Two distinct binding modes provide the RNA-binding protein RbFox with extraordinary sequence specificity”
